# Results from the supplement of paper PMC12645437, “Orthogonal IMiD-Degron Pairs Induce Selective Protein Degradation in Cells” (ACS Chemical Biology, 2025).
# The other results are listed elsewhere or left out.
# Target: no compound (DMSO)
# Assay: log2 fold change of degron read counts, EGFP-low vs EGFP+ sorted cells; higher = lower degron-EGFP level without compound (poor expression or instability)
# Conditions: compound: DMSO control; 18 h
# 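Also: jurkat cells carrying a lentiviral library of mutant zinc finger degrons fused to EGFP plus mCherry, mCherry+ cells FACS sorted, degron abundance counted by next-generation sequencing.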
row,Sequence,log2 fold change of degron read counts
1,FECEVCGAIFTQKGNLLRHIKL,-1.83
2,FCCEICGRLFTQKGNLLRHIKL,-3.56
3,FQCEICGRRFTQKGNLLRHIKL,-1.24
4,FGCEICGAWFTQKGNLLRHIKL,-0.454
5,FICPICGHCFTQKGNLLRHIKL,-0.36
6,FCCNQCGAWFTQKGNLLRHIKL,0.722
7,FNCDVCGAAFTQKGNLLRHIKL,-1.37
8,FICNVCGAYFTQKGNLLRHIKL,-0.114
9,FDCPVCGALFTQKGNLLRHIKL,-0.543
10,FACEICGARFTQKGNLLRHIKL,-0.785
11,LVCPICGFCCTQKGNLLRHIKL,1.03
12,FHCEVCGATFTQKGNLLRHIKL,-1.83
13,FDCEVCGAFFTQKGNLLRHIKL,-0.1
14,FMCPQCGAEFTQKGNLLRHIKL,-1.65
15,FECEQCGATFTQKGNLLRHIKL,-2.16
16,FRCNQCGAQFTQKGNLLRHIKL,-1.01
17,FFCPICGAHFTQKGNLLRHIKL,0.474
18,FDCNQCGRLFTQKGNLLRHIKL,1.16
19,FSCDVCGAFFTQKGNLLRHIKL,-0.533
20,FGCPQCGAIFTQKGNLLRHIKL,-0.202
21,FCCDICGACFTQKGNLLRHIKL,-1.58
22,FICPQCGASFTQKGNLLRHIKL,-1.06
23,LSCEICGFICTQKGNLLRHIKL,0.662
24,LRCPICGFVCTQKGNLLRHIKL,1.11
25,FKCNQCGHMFTQKGNLLRHIKL,-0.488

row,Sequence,log2 fold change of degron read counts
1,FTCPICGHHFTQKGNLLRHIKL,-0.546
2,FRCSVCGHIFTQKGNLLRHIKL,0.0801
3,FLCSVCGHFFTQKGNLLRHIKL,1.4
4,FQCPVCGADFTQKGNLLRHIKL,-1.35
5,FACPVCGAQFTQKGNLLRHIKL,-0.697
6,FNCPICGHIFTQKGNLLRHIKL,0.249
7,FECPICGRRFTQKGNLLRHIKL,-0.157
8,LHCPICGFKCTQKGNLLRHIKL,0.266
9,FVCNVCGADFTQKGNLLRHIKL,-1.48
10,FHCNVCGANFTQKGNLLRHIKL,-0.255
11,FCCPICGHTFTQKGNLLRHIKL,-1.02
12,FVCEICGRLFTQKGNLLRHIKL,-0.245
13,FSCSVCGHTFTQKGNLLRHIKL,-0.887
14,FFCNQCGHIFTQKGNLLRHIKL,0.984
15,LNCPICGFGCTQKGNLLRHIKL,0.586
16,FHCPICGRKFTQKGNLLRHIKL,-2.23
17,FLCPICGRCFTQKGNLLRHIKL,-0.49
18,LVCNQCGFICTQKGNLLRHIKL,0.916
19,FMCSVCGHKFTQKGNLLRHIKL,-0.512
20,FGCEVCGAIFTQKGNLLRHIKL,-0.567
21,FMCPICGHVFTQKGNLLRHIKL,-0.0172
22,FECSVCGHYFTQKGNLLRHIKL,-0.658
23,FWCEICGREFTQKGNLLRHIKL,-1.31
24,FGCNICGAFFTQKGNLLRHIKL,0.0684
25,FFCPICGRVFTQKGNLLRHIKL,0.0183
